Screen size: about 310,000 compounds; about 2,200 (0.71%) showed an effect of 50% or more. Effects have a minus sign here. The list shows a part of the results.
Target: human ether-à-go-go-related gene (hERG) potassium channel (human, UniProt Q12809)
Assay: primary screen, population patch clamp on CHO cells stably expressing hERG

Sequence of human ether-à-go-go-related gene (hERG) potassium channel (Q12809 whole entry, looked up): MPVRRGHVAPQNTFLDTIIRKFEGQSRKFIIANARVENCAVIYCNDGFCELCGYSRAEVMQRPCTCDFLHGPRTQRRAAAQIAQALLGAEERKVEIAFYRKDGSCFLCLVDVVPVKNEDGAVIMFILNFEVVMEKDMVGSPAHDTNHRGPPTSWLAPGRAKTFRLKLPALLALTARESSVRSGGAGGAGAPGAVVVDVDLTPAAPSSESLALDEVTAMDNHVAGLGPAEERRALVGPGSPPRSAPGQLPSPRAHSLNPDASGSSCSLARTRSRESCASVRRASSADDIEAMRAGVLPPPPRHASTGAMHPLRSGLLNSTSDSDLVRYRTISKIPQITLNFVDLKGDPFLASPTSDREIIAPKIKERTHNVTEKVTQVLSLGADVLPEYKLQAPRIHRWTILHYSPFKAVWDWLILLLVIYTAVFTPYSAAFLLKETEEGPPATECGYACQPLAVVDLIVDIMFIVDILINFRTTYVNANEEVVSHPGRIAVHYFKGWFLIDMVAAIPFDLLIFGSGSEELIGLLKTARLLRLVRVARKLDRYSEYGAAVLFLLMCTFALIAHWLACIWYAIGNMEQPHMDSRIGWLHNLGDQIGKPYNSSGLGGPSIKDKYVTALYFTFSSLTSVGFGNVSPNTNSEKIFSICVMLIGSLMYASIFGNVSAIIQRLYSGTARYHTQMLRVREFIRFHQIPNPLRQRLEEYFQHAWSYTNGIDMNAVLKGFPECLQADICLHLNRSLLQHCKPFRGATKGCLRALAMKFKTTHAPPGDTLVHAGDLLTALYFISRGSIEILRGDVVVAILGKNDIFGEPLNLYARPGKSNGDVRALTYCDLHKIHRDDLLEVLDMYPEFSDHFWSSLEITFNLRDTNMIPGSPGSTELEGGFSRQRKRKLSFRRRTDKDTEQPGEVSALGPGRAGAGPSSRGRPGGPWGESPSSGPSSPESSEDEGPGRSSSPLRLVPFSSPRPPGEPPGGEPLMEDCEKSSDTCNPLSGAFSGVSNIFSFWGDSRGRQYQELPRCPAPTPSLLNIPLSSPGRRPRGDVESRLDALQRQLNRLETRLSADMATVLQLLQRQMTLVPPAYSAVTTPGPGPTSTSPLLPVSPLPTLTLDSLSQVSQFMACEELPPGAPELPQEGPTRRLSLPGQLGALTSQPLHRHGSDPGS

| SMILES | hERG current change (%, negative = inhibition) at 1uM [%] |
| --- | --- |
| CCCCCCc1cc2cc(-c3nnc(-c4ccccc4OC)o3)c(=O)oc2cc1O | 2.36 |
| COc1cc(/C=C/c2ccc3cccc(O)c3n2)cc(Br)c1OC | 15.1 |
| COc1ccccc1N1CC(C(=O)Nc2nc(C)cs2)CC1=O (stereo not drawn) | -3.75 |
| COc1ccc(N2CCN(CCCNC(=O)Nc3ccccc3)CC2)cc1 | -50.5 |
| CN(CC(=O)Nc1ccccc1Br)C(=O)c1cccnc1Nc1cccc(C(F)(F)F)c1 | 10.2 |
| O=C(CSc1nnc2c(n1)[nH]c1ccc(F)cc12)NCc1ccc(F)cc1 | 7.43 |
| CC(=O)Nc1ccc(NC(=O)Cn2c(=O)n(-c3ccc(F)cc3)c(=O)c3oc4ccccc4c32)cc1 | 12.4 |
| O=C(NNC1=C(C(=O)C(F)(F)F)CCC1)c1cccc(Cl)c1 | 13.4 |
| C=CCN1C(=NC(=O)CCCC(=O)O)SC2CS(=O)(=O)CC21 (stereo not drawn) | 10.8 |
| CCCN1CCC(NC(=O)Cc2ccccc2OC)CC1 | 7.16 |
| CSc1nc(C(C)C)ccc1CNC(=O)CC(C)c1ccccc1 (stereo not drawn) | 10.9 |
| CCCCn1nc(C(=O)Nc2c(C)n(C)n(-c3ccccc3)c2=O)c2ccccc2c1=O | 7.57 |
| CC1=CC(C)(C)Nc2ccc(Cc3ccc4c(c3)C(C)=CC(C)(C)N4)cc21 | 14.3 |
| O=C(Cn1c(=O)c2c(ncn2Cc2ccccc2)n(Cc2ccccc2)c1=O)NC1CC1 | 11.1 |
| O=C(CN1CCN(c2ccc(Cl)cc2)CC1)NCc1ccccc1 | -23.6 |
| Cc1ccc(C)c(SCC(=O)Nc2cccnc2Cl)c1 | 3.02 |
| COc1cc(/C=C/C(O)=C/C(=O)/C=C/c2ccc(O)cc2)ccc1O | 14.5 |
| O=C(CSc1nnc(SCc2ccccc2)s1)N/N=C/C=C\c1ccco1 | 15.9 |
| O=C(CSc1nc2ccccc2s1)Nc1cc(S(=O)(=O)N2CCOCC2)ccc1Cl | 7.53 |
| Cc1ccc(C(=O)NCC(=O)NC2CCCC2)cc1 | 12.6 |
| Cc1cccc(C(=O)NCCC(=O)NCc2ccccc2F)c1 | 5.88 |
| O=C(Cn1c(=O)n(CCC(=O)N2CCCCC2)c(=O)c2sccc21)NCc1ccccc1 | 11.6 |
| CCOc1ccc(CCNC(=O)CS(=O)Cc2nc(-c3ccccc3C)oc2C)cc1OCC (stereo not drawn) | 16.3 |

| SMILES | hERG current change (%, negative = inhibition) at 1uM [%] |
| --- | --- |
| CCOc1cccc(-c2csc(C3COc4ccccc4O3)n2)c1.Cl (stereo not drawn) | 16.4 |
| N#CCN1CCC/C1=C\[N+](=O)[O-] | 22.1 |
| Cn1c(NC(=O)c2ccccc2)nc2ccccc21 | 14.4 |
| CCC(C)NC(=O)CSc1n[nH]c(-c2cc(Cl)ccc2OC)n1 (stereo not drawn) | 2.44 |
| O=C(CN1C(=O)NC2(CCCC2)C1=O)Nc1cc(Cl)ccc1N1CCCCC1 | 8.98 |
| Cc1cc(NC(=S)N(CCN2CCOCC2)Cc2ccccc2F)ccc1Cl | 6.39 |
| CCCC(C)NC(=O)Cc1ccc(Br)cc1 (stereo not drawn) | 13.6 |
| Cc1ccc(C)c(-c2nnc(NC(=O)CCS(=O)(=O)c3ccccc3)o2)c1 | -13.5 |
| COCCn1c(SCC(=O)NC2CCCC2)nnc1-c1ccco1 | 15.1 |
| Cc1ccoc1C(=O)Nc1ccc2ccccc2c1 | 12.5 |
| O=C1/C(=C/c2cccnc2)N=C2CCCCCN12 | 2.46 |
| CS(=O)(=O)c1ccc(Cl)c(NC(=O)COC(=O)CNC(=O)c2ccc(Br)o2)c1 | 8.67 |
| S=C1NCCNC(=S)NCCOCCOCCN1 | 12.3 |
| Cc1ccc(NC(=O)CNC(=O)c2cccs2)cc1S(=O)(=O)Nc1ccc(Cl)cc1 | 7.67 |
| Cc1ccc(-n2ncc3c(N4CCC(C(N)=O)CC4)ncnc32)c(C)c1 | -10.4 |
| Cl.Clc1ccc(SCCOCCN2CCc3ccccc3C2)cc1 | 8.68 |
| O=[N+]([O-])c1ccc(-[n+]2nc(-c3ccccc3)nn2-c2ccccc2)cc1.[Br-] | 16.9 |
| O=C(NN1C(=O)CSC1=S)C(=O)NN1C(=O)CSC1=S | 21.5 |
| OC1(c2ccccn2)COc2ccccc2O1 (stereo not drawn) | 0.694 |
| COc1ccc(CCN2CC(C(=O)NCCc3ccccc3C)CCC2=O)cc1 (stereo not drawn) | 5.05 |
| CC1=CC(C)(C)N2C(=O)C3(N=C(N)NC(Nc4ccccc4)=N3)c3cc(C)cc1c32 (stereo not drawn) | 1.44 |
| Br.Cc1cc(NS(=O)(=O)c2ccc(Nc3nc(-c4sc(NC(=O)c5ccccc5)nc4C)cs3)cc2)no1 | -0.702 |

Source: publication PMC4336329 (PLoS ONE, 2015)
